The record followed here is article PMC12136788.

Sequences and labels used below:
B1: chr1:205790044:205790145:-|3pUTR|ENSG00000133065|msi1|total|mutant (ssRNA)
RNA: GGGAGUUCUACAGUCCGACGAUCAGAUUCUUCUGCCUCUUUCUCCUUUCCAGACCCCUACUCUGUGCAGUGCUGACCACAGCCCGAGCCACCGCCCCAUUGCUCAACCAGUAUUUAUUUCCCUAAACGACCCUUCCUCACAUUCAACAGAGGAUUGAGCAUCA
B2: chr12:32745429:32745530:+|3pUTR|ENSG00000087470|msi1|FALSE|unique (ssRNA)
RNA: GGGAGUUCUACAGUCCGACGAUCCAACGGAAAGAGAAAAGCCUUCCUUUGUUGGCCCUUAAACUGAGUCAAGAUCUGAAAUGUAGAGAUGAUCUCUGACGAUACCUGUAUGUUCUUAUUGUGUAAAUAAAAUUGCUGGUAUGACAACAGAGGAUUGAGCAUCA
B3: ENSG00000107863:be:win_851|CDS|ENSG00000107863|bound_else_gene|NA|bound_elsewhere_windowed (ssRNA)
RNA: GGGAGUUCUACAGUCCGACGAUCUGUUAUCCAAUAGAAACAACCAUACAGGUCCUUCACAUAGAACUGAAGAAGUGAGGUAUGGCGUGAGUGAGCAGACCUCUUUAAAAACAGUGUCAAGAACCACAUCACCACCAUUAUCAACAACAGAGGAUUGAGCAUCA
B4: chr1:114567884:114567985:-|3pUTR|ENSG00000116752|msi1|total|mutant (ssRNA)
RNA: GGGAGUUCUACAGUCCGACGAUCUGGUAAUUCUAUUUGUAUAUCUCAACAGAAUUAAAAUGUCCCGCUUGGUGGUAUUUUUACCGCCAUAAAAGAAAAUCUUCCGGCUUUCAAAAUAAGGAUGACUUCCGAAUAAUAUUGUGUCAACAGAGGAUUGAGCAUCA
B5: chr12:123662440:123662541:+|3pUTR|ENSG00000111358|unk|FALSE|unique (ssRNA)
RNA: GGGAGUUCUACAGUCCGACGAUCAAUGGAAAUCACAAUUUUAAGUCUAGGAAAUAAAGUAUUAUAUAUACUUUCAAACAAGCUAGCAAGGCUUUUAUUAUUACUUUUUUAUUUGAAAUAUCUUAUAUAUUUGGUUAGUUCUGUCAACAGAGGAUUGAGCAUCA
B6: chr11:27368498:27368690:-|CDS|ENSG00000205213|msi1|total|mutant (ssRNA)
RNA: GGGAGUUCUACAGUCCGACGAUCACCCCUUUGUUUGCCAUUUCCUACAGGUGAAACGCCAUCAUCCGGAUUCACUGUAACGUCCGUGCUAUUAAACUCACCCGCAUUUUUAUUAAUGGCCGUUAUCUACACUAAACUAUACUGCAACAGAGGAUUGAGCAUCA
B7: chr10:51697484:51697585:-|3pUTR|ENSG00000177613|unk|FALSE|unique (ssRNA)
RNA: GGGAGUUCUACAGUCCGACGAUCAAUGGGUGCAAAAAGCUGACUUCUGUAUCCCCACACUUGGAUUAGGGUUUCCCUCCUCCUAGAACCUAAUCUUAUUUUUUGUUCUUUUUCUUUCUUUCUGUUUUCCUUUUUUUUUUAAUUCAACAGAGGAUUGAGCAUCA
B8: ENSG00000150403:stop:overlap|stop_codon|ENSG00000150403|stop_codon|NA|stop_codon (ssRNA)
RNA: GGGAGUUCUACAGUCCGACGAUCUGUCCAGGUUCCUCAUGGGCAGUGCUCGGGGUGACAAAGAAGGCAACAGAACAGCCCUCUAGCAGAGCGUCAGUGCAGUCGUGUUAUCCCGGCUUUUACAGAAUAUUCUUGUCCUAUUUUCAACAGAGGAUUGAGCAUCA
B9: chr20:59325757:59325866:+|3pUTR|ENSG00000124205|unk|FALSE|unique (ssRNA)
RNA: GGGAGUUCUACAGUCCGACGAUCUUAUGUGGAUCUGUUCAAAGUAGUCACUGUAUAUACGUAUAGAGAGGUAGAUAGGUAGGUAGAUUUUAAAUUGCAUUCUGAAUACAAACUCAUACUCCUUAGAGCUUGAAUUACAUUUUUCAACAGAGGAUUGAGCAUCA
B10: chr2:73268725:73269630:-|CDS|ENSG00000163013|control|control|control (ssRNA)
RNA: GGGAGUUCUACAGUCCGACGAUCCGAGAAGGAGGAGCUGGAGGAGCGCGCGUCUGAGCUCUCCCGCCAGGUGGACGUGAGCGUAGAGCUGCUGGCCUCACUCAAGCAGGACCUGGUGCACAAGGAACAGGAGCUGAGCCGCAACAACAGAGGAUUGAGCAUCA
B11: ENSG00000198589:be:win_501|CDS|ENSG00000198589|bound_else_gene|NA|bound_elsewhere_windowed (ssRNA)
RNA: GGGAGUUCUACAGUCCGACGAUCCGAGCUAAAGCUUUUCUUCAGUAAACUUCAAGGAGAUAAAGGACGAUGGCCUCCACAUGCUGGGAAGUUGCUGUCUGUGUUAAAGCAUAUGCCUCAGAAGUAUGGUCCUGAUGCCUUUUUCAACAGAGGAUUGAGCAUCA
B12: chr8:74853834:74853946:+|3pUTR|ENSG00000137558|unk|total|mutant (ssRNA)
RNA: GGGAGUUCUACAGUCCGACGAUCAAGUGCUUUUUUUUUUCUGAAUUAAUCCGGUAUUGGUAAAAUAUAUUUUUAAAUUCCGUCCGCUUUAUAAACACAAUCCGAAUUACAAUUAAUUAACAGAGGUAUAAUUGUCUCACUUUCCAACAGAGGAUUGAGCAUCA
B13: ENSG00000136451:be:win_2401|3pUTR|ENSG00000136451|bound_else_gene|NA|bound_elsewhere_windowed (ssRNA)
RNA: GGGAGUUCUACAGUCCGACGAUCAUUCCUAUUUAGGAGCCAAGGAGUACUUUGGAACAGUACAAAUAUAUUGCUUUAAAUUGGAAGACGCUGGAGGCACUGGGAUGUGAUAUGCCCCUCUCUCUCCCAAUCAGAGCCUGUUGACAACAGAGGAUUGAGCAUCA
B14: chr1:213241816:213241921:+|CDS|ENSG00000136643|unk|FALSE|unique (ssRNA)
RNA: GGGAGUUCUACAGUCCGACGAUCGAGAAACACUAUGCACAGGAGGAUCCCAGGAUGUUAUUUGUAGCAGCUGUUGAUCAUAGUAGUUCAGGAGAUAUGUCUUUGUUACCCAGCUCAGAUCCUAAGUUUCAAGGACUUGGAGUGCAACAGAGGAUUGAGCAUCA

Some of the results follow.

In the test the target is MSI1 full-length (mouse, UniProt Q61474 1-362). Nature of the test: nsRBNS (natural sequence RNA bind-n-seq); RBNS binding buffer (assumed for nsRBNS): 25 mM Tris pH 7.5, 150 mM KCl, 3 mM MgCl2, 0.01% Triton X-100, 500 ug/ml BSA, 20 U/ml SUPERase-In, 4 C; UNK is unkempt and MSI1 is Musashi-1; names of the RNAs are library labels; protein concentration not given here; high values mean tight binding.
UniProt Q61474, sequence (Q61474 whole entry): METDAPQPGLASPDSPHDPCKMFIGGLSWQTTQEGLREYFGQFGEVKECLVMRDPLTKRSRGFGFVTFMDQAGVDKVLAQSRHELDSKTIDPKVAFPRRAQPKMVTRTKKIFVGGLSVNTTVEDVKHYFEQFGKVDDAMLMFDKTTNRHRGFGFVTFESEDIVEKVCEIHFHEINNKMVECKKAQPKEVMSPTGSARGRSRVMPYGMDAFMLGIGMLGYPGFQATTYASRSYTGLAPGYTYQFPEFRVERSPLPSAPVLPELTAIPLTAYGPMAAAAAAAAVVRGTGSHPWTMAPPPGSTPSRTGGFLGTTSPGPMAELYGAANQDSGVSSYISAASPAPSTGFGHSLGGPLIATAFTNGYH
In turn, B1 displayed a binding signal of 1.25 enrichment R.
To B2 belongs 0.326 enrichment R.
The figure for B3 is 0.875 enrichment R; for B4 it is 0.304 enrichment R.
In the case of B5, the binding signal is 12.8 enrichment R.
The figure for B6 is 0.49 enrichment R.
To B7 belongs 0.793 enrichment R; to B8, 0.829 enrichment R; to B9, 20.2 enrichment R.
As to B10, the binding signal came to 0.553 enrichment R.
For the molecule B11, the binding signal stood at 0.338 enrichment R.
B12 had a binding signal of 1.6 enrichment R.
To B13 belongs 0.396 enrichment R; to B14, 0.932 enrichment R.
